According to PubChem BioAssay AID1345082 (National Center for Advancing Translational Sciences (NCATS), 2018):
Screen size: about 94,000 compounds; about 4,000 (4.3%) were called active. Inconclusive means that the source gave no clear call. Such entries were picked first, then a sample of the others. The call rests on the fitted dose curve; in most records, active means well fitted inhibition curve with a large enough effect; inconclusive means small, poorly fitted or top-dose-only effect; inactive means no such curve, though single readings can be large or run the other way. Potencies beside an inconclusive call are fits to weak or partial responses and may not hold up.

Test: Cytotoxic Profiling in NIH 3T3 Cell Line of Diverse Libraries Using Quantitative High-Throughput Screening; further: nearly all actives have a fitted effect of over 55% in size; on activity change, negative = cytotoxicity: series mostly up to about 97 µM
Conditions: NIH 3T3 viability, CellTiter-Glo ATP luminescence, 48-72 h; activity change, negative = cytotoxicity: at the top concentration
How it was run: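 Cytotoxicity is measured as loss of cellular ATP: NIH 3T3 cells (400/well) are exposed to compound for 48 or 72 hr at 37 °C, then CellTiter-Glo luminescence is imaged after 10 min at room temperature.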
On the % scale 0 is the no-effect control and ±100 the full control effect; potency means the concentration at half of the fitted maximal effect; tags describe the fitted curve by direction and shape.

| Structure (SMILES) | Potency | activity change, negative = cytotoxicity | outcome |
| --- | --- | --- | --- |
| O=C(Cc1ccc(F)cc1)N1CCN(Cc2ccccc2-c2cccnc2)CC1 | inconclusive: 35.5 µM [inhibitor, partial curve] |  |  |
| Cn1nc(C2CCCCC2)cc1[C@H]1CN2CC[C@H]1C[C@@H]2CN | inconclusive: 112 µM [inhibitor, partial curve, poor fit] |  |  |
| COc1ccc(-c2cc([C@H]3CN4CC[C@H]3C[C@@H]4CNC(=O)c3ccc(N(C)C)cc3)n(C)n2)cc1 | inconclusive: 22.4 µM [inhibitor, full curve, poor fit] |  |  |
| O=C(NC1CCCCC1)[C@H]1CN2CCC1C[C@@H]2Cn1cc(COc2ccccc2)nn1 (some centres undefined) |  | inactive: -20.3% [at 174 µM] |  |
| COc1cc2c(cc1OCc1ccccc1)N(C(=O)COc1ccccc1C(N)=O)CC21CCN(C)CC1 | active: 22.4 µM |  |  |
| CSCC(=O)N1CC(CO)C2(CCNCC2)C1 (centres undefined) |  |  | inactive |
| CCS(=O)(=O)N1[C@H]2CC[C@@H]1c1cnc(-c3ccc(F)cc3)nc1C2 |  | inactive: -29.9% |  |
| COc1cc2c(cc1Oc1ccccc1)NC(=O)C21CCN(c2nc(C)cnc2C)CC1 | inconclusive: 56.2 µM [inhibitor, partial curve, poor fit] |  |  |
| Cc1nc(-c2cccs2)cc([C@H]2CN3CC[C@H]2C[C@@H]3CNC(=O)c2ccc(C(F)(F)F)cc2)n1 | inconclusive: 50.1 µM [inhibitor, partial curve, poor fit] |  |  |
| COc1cc2c(cc1OCc1ccncc1)NC(=O)C21CCN(Cc2ccccc2)CC1 | active: 79.4 µM |  |  |
| O=C(NC[C@H]1C[C@@H]2CCN1C[C@@H]2CN1CCCC1)c1ccco1 |  | inactive: 2.2% [at 138 µM] |  |
| NC(=O)C1=NO[C@@H]2CN(CC3CCCCC3)C[C@H]12 | inconclusive: 126 µM [inhibitor, single point] |  |  |
| COc1cc2c(cc1OCc1ccccc1)N(C(=O)c1ccnn1C)CC21CCN(C)CC1 | inconclusive: 70.8 µM [inhibitor, single point] |  |  |
| Cc1nc(-c2ccco2)cc([C@H]2CN3CC[C@H]2C[C@@H]3CNS(=O)(=O)c2cccs2)n1 | inconclusive: 39.8 µM [inhibitor, partial curve, poor fit] |  |  |
| CN1CCN2C(=O)N(Cc3cccnc3)C[C@H]2C1 |  | inactive: -4.52% [at 174 µM] |  |
| C#CCN1C(=O)[C@@H]2[C@H](c3ccccc31)[C@@H](C(=O)OCC)[C@@H](c1ccccc1)N2C(=O)COC | inconclusive: 56.2 µM [inhibitor, partial curve, poor fit] |  |  |
| COc1cc2c(cc1OCC1CC1)NC(=O)C21CCN(Cc2ccccc2O)CC1 | active: 39.8 µM |  |  |
| Cc1cccc(C(=O)N2CCC3(CC2)c2nccn2-c2ccccc2CN3C)c1 |  |  | inactive |
| Cc1ncc2c(n1)C[C@@H]1CC[C@H]2N1C(=O)c1cccs1 |  | inactive: -5.41% |  |
| O=C(Nc1nccs1)[C@H]1CN2CCC1C[C@@H]2Cn1cc(CC2CCCCC2)nn1 (some centres undefined) |  | inactive: -18.6% [at 174 µM] |  |
| COc1nc2c(cc1CNC(=O)C1C(C)(C)C1(C)C)C(=O)N(C1CCCC1)C2 | inconclusive: 89.1 µM [inhibitor, partial curve, poor fit] |  |  |
| C=C[C@H]1CN2CC[C@H]1C[C@@H]2CNC(=O)Nc1cc(OC)cc(OC)c1 | inconclusive: 126 µM [inhibitor, single point] |  |  |

| Structure (SMILES) | Potency | activity change, negative = cytotoxicity | outcome |
| --- | --- | --- | --- |
| Cc1nc(-c2ccco2)cc([C@H]2CN3CC[C@H]2C[C@@H]3CNCC2CCCCC2)n1 | active: 89.1 µM |  |  |
| CN1C(=O)CO[C@H]2CN(C3CCOCC3)C[C@H]21 |  | inactive: 4.7% [at 230 µM] |  |
| C=C[C@H]1CN2CC[C@H]1C[C@@H]2CNC(=O)Nc1ccc(C(C)=O)cc1 | inconclusive: 126 µM [inhibitor, single point] |  |  |
| Cc1ncc2c(n1)C[C@@H]1CC[C@H]2N1S(=O)(=O)c1ccccc1C |  | inactive: -14.4% |  |
| COc1cc2c(cc1-c1cccc(NC(C)=O)c1)NC(=O)C21CCN(C(C)=O)CC1 | inconclusive: 56.2 µM [inhibitor, partial curve, poor fit] |  |  |
| CC(C)CN(Cc1cccnc1)C1CN(C(=O)COc2ccc(F)cc2)C1 | active: 31.6 µM |  |  |
| O=C(c1onc2ccccc12)N1CCC2(CCCNC2)C1 (centres undefined) |  | inactive: -10.6% |  |
| C=C[C@H]1CN2CC[C@H]1C[C@@H]2CNC(=O)CSCC(=O)O | inconclusive: 126 µM [inhibitor, single point] |  |  |
| O=C(NC[C@H]1C[C@@H]2CCN1C[C@@H]2CN1CCC(Cc2ccccc2)CC1)Nc1ccsc1 | inconclusive: 22.4 µM [inhibitor, full curve, poor fit] |  |  |
| O=C1NCCOCCN[C@@H]2CCCC[C@H]12 |  |  | inactive |
| Cc1nc(-c2ccccc2Br)cc([C@H]2CN3CC[C@H]2C[C@@H]3CNC(=O)Nc2cccc(C#N)c2)n1 | active: 28.2 µM |  |  |
| CCC(=O)N1CCC2(CC1)c1nccn1-c1ccccc1CN2CC(C)C |  | inactive: -8.23% |  |
| CC(C)NC(=O)N1CCC2(CC1)c1nccn1-c1ccccc1CN2C | inconclusive: 70.8 µM [inhibitor, single point] |  |  |
| CSCC(=O)Nc1ccc2n(c1=O)C[C@H]1C[C@@H]2CN(C(=O)COc2ccccc2)C1 | active: 79.4 µM |  |  |
| Cn1nc(C2CCCC2)cc1[C@H]1CN2CC[C@H]1C[C@@H]2CNS(=O)(=O)c1ccccc1 | active: 112 µM |  |  |
| Cc1nc(-c2ccccc2Br)cc([C@H]2CN3CC[C@H]2C[C@@H]3CNC(=O)NC(C)C)n1 | inconclusive: 39.8 µM [inhibitor, full curve, poor fit] |  |  |
| CC(C)(C)CC(=O)N1C[C@@H]2C[C@H](C1)c1ccc(NC(=O)c3ccco3)c(=O)n1C2 |  | inactive: 4.51% [at 174 µM] |  |
| O=C(Cc1ccc(F)cc1)N1CCN(C2CCN(CCc3ccccc3)C2=O)CC1 (centres undefined) |  | inactive: -20% |  |
| c1nc(N2C[C@@H](c3ccc4c(c3)OCO4)[C@@H]3[C@H]2C2CCN3CC2)c2[nH]cnc2n1 |  | inactive: -10.1% |  |
| COc1cc2c(cc1OCc1ccccc1)N(C(=O)c1cccc(N(C)C)c1)CC21CCN(C)CC1 | active: 11.2 µM |  |  |
| CC[C@H]1CN2CC[C@H]1C[C@@H]2CNC(=O)Nc1cccc(SC)c1 |  | inactive: -21.7% [at 174 µM] |  |
| COc1ccc(CC(=O)N2CCC3(CC2)c2nccn2-c2ccccc2CN3C)cc1 | inconclusive: 70.8 µM [inhibitor, single point] |  |  |
